PubChem BioAssay AID743279 (National Center for Advancing Translational Sciences (NCATS), 2014)
Out of some 360,000 compounds screened, about 17,000 (4.7%) were called active. The inconclusive results got no clear call from the source; some entries with a clear call stand among them for comparison. Rule as the data show it: active = activity change below about -50%; inconclusive = mostly about -30% to -49%; inactive = weaker than that.

Assay: qHTS for Inhibitors of Inflammasome Signaling: IL-1-beta AlphaLISA Primary Screen
Details: THP-1 LPS/ATP IL-1B secretion, 16 h; at 57.5 µM, hits give low values
Outline: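 Secreted IL-1B measured by AlphaLISA bead assay after 16 h compound exposure of THP-1 cells; compounds (final up to 57.5 uM) added 1 h before LPS (250 ng/mL) and ATP (1.25 mM) stimulation; lower signal means less secretion.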
% is scaled to controls: 0 for no effect and ±100 for the full control effect.

SMILES	activity change
O=C(CSc1nnc(-c2cc3ccccc3cc2O)n1Cc1ccco1)N1CCc2ccccc2C1	active: -70.9%
CCC(c1nnnn1C(C)(C)CC)N(CCCO)Cc1cc2cc(C)cc(C)c2[nH]c1=O (centres undefined)	inconclusive: -34.6%
N#CC1=C2SCC(O)(c3ccccc3)N2C(=O)CC1c1ccccc1F (centres undefined)	inconclusive: -39.9%
Cc1c(C)n(C(=O)CN2CCN(c3ccccn3)CC2)c2ccccc12	inactive: 19.8%
COc1ccc(-c2nnc(SCC(=O)N(Cc3ccccc3)C(C)(C)C)o2)cc1OC	inconclusive: -34.8%
O=C(NCCN1CCOCC1)c1cc(Sc2cccc(Cl)c2)nc2ccccc12	inconclusive: -31.6%
Cc1ccccc1NC(=O)Cc1nc(COC(=O)c2ncc(Cl)c(Cl)c2Cl)cs1	active: -88.4%
CN(C)CC/C=C1/c2ccccc2Sc2c(O)cc(Cl)cc21	inconclusive: -32.7%
CCCNC(=O)C[C@@H]1C[C@@H]2c3cc(NS(=O)(=O)c4ccc(OC)cc4)ccc3O[C@@H]2[C@@H](CO)O1	inconclusive: -31.1%
Cc1ccccc1CNc1ccc(C(CC(N)=O)NC(=O)c2ccccc2)cc1[N+](=O)[O-] (centres undefined)	active: -78.4%
COc1ccccc1NC(=O)COC(=O)c1c(C)nn(-c2ccccc2)c1C	inconclusive: -46.8%
O=S(=O)(NCc1ccccn1)c1ccccc1	inactive: 0%
CCOC(=O)C1(CCOc2ccccc2)CCN(Cc2ccc(OC)c(O)c2)CC1	active: -51.6%
FC(F)c1nc2nc(Cl)c(Cl)nc2[nH]1	inactive: 40.7%
O=[N+]([O-])c1cc(S(=O)(=O)NCCN2CCOCC2)ccc1Cl	active: -83.7%
OC(CN=c1sc2ccccc2n1CC(O)COc1ccccc1)COc1ccccc1 (centres undefined)	inconclusive: -37.9%
COC(=O)c1c(N)n(CCCN2CCOCC2)c2nc3ccccc3nc12	inactive: -29.9%
CC(=O)c1c(C)nn(CC(O)COc2ccc3c(c2)CCC3)c1C (centres undefined)	inconclusive: -31.4%
Cc1nc(N)sc1N=Nc1ccc(Br)cc1	inactive: -6.22%
COc1ccccc1/C=C1/SC(=S)N(C(C)C(=O)NC2C=CS(=O)(=O)C2)C1=O (centres undefined)	inconclusive: -46.6%
CCN1/C(=C\C=C2\C(=O)N(C)C(=S)N2C)Sc2ccccc21	inactive: 20.2%
COc1ccc(CNC(=O)CN(Cc2ccc(Cl)cc2)S(=O)(=O)c2ccccc2)cc1	inconclusive: -45.6%
CCN(CC)CCn1c2ccc(F)cc2c2nc(C)sc21	inconclusive: -36.3%

SMILES	activity change
O=C(CN1c2ccccc2Sc2ccccc21)NNC(=S)Nc1ccc(Cl)cc1Cl	inconclusive: -43.3%
CC(C)=CCc1c(-c2ccc(O)cc2O)oc2cc3c(c(O)c2c1=O)C=CC(C)(C)O3	inconclusive: -30.6%
O=C(COc1cccc(C(F)(F)F)c1)NCC(c1ccco1)N1CCCCC1 (centres undefined)	inconclusive: -33.1%
O=C(NNc1ncnc2c1cnn2-c1ccc(F)cc1)c1ccco1	inconclusive: -32.2%
Cc1ccc(/C=c2\sc3n(c2=O)CN(c2cccc(Br)c2)CN=3)o1	active: -50.9%
COc1ccc(NCC(=O)N/N=C(\C)c2cc3ccccc3o2)cc1	active: -54.8%
CCc1nc2c(OCCC3CCCCC3)cccn2c1N(C)C(=O)c1ccco1	inconclusive: -36.7%
O=S(=O)(NCCNc1ncc(C(F)(F)F)cc1Cl)C(F)(F)F	active: -54.6%
COc1ccc(NC(=O)Nc2ccccc2C(N)=O)cc1OC	inactive: 0%
COc1cccc(NC(=O)CSCc2cc(=O)n3nc(C4CC4)sc3n2)c1	inconclusive: -32.2%
O=C(COC(=O)c1nc(Cl)c(Cl)c(Cl)c1Cl)NCc1ccccc1	active: -88.8%
COc1ccccc1C1CC(c2ccco2)=NN1c1ccccc1 (centres undefined)	inconclusive: -48.2%
CCOc1ccc(C(=O)c2ccc(OCC)c(N)c2)cc1N	inconclusive: -31.2%
Cc1cc(-c2csc(NC(=O)c3cccc(S(=O)(=O)N(C)C)c3)n2)c(C)n1-c1ccccc1	inactive: 6.27%
O=C(Nc1cccc(S(=O)(=O)N2CCCC2)c1)c1cc(-c2ccccn2)nc2ccccc12	inconclusive: -34.9%
CCCn1c(SCc2nc3ccccc3s2)n[nH]c1=O	inactive: 102%
CC/C(=N\NC(=O)CNC(=O)/C=C/c1ccco1)c1ccccc1	inactive: 11.8%
CCOC(=O)CNC(=O)C1c2cc(OC)c(OC)cc2C(=O)N(C)C1c1ccccc1F (centres undefined)	inactive: 5.99%
Cc1ccc(C)c(C(O)c2ncc(-c3ccccc3Cl)[nH]2)c1 (centres undefined)	inconclusive: -34.8%
Cc1ccc(NC(=O)c2ncn(CCCN3CCN(c4ccccn4)CC3)n2)cc1C	inactive: -5.85%
Nc1ccc(N2CCOCC2)c(S(=O)(=O)Nc2cc(Cl)ccc2Cl)c1	inactive: 38%
O=C1C(c2cc(=O)c3ccccc3[nH]2)=C(O)c2ccccc21	inconclusive: -43.5%
COc1ccc(CCNC(=S)NC2CCN(Cc3ccccc3)CC2)cc1	inconclusive: -49.7%

SMILES	activity change
CC(CN(C)C)CN1c2ccccc2Sc2ccccc21 (centres undefined)	inconclusive: -33.8%
Cc1cc2c(cc1C)N(C(=O)CSC1=NCCS1)C(C)(C)c1ssc(=S)c1-2	active: -50.1%
Cc1ccc(C)c(N2N=C(C(=O)OCC(=O)N(C)c3ccccc3)CCC2=O)c1	inactive: 18.3%
CCCCSc1nc(C)cc(SCC(=O)N/N=C/c2ccccc2)n1	inactive: 56.2%
CN(C)CCCn1c2c3ccccc3ccc2c2oc(=O)c3ccccc3c21	active: -100%
O=C1ON=C(c2ccccc2)/C1=C/c1ccc(O)cc1	active: -98.5%
COc1ccc(N(CC(=O)N2CCN(c3cccc(C)c3)C(C)C2)S(=O)(=O)c2c(C)n[nH]c2C)cc1 (centres undefined)	active: -60.9%
CCN(CC)C(=O)CSc1nc(C)cc(-c2cccs2)c1C#N	inconclusive: -35.3%
FC(F)(F)c1ccc(N/N=C/c2cccnc2)nc1	active: -96.7%
CC(C)NC(=O)Cn1cc(C(=O)COc2ccccc2)c2ccccc21	inactive: 15.2%
Cc1csc(-c2cc(C(=O)NCc3cc(C(F)(F)F)cc(C(F)(F)F)c3)n[nH]2)c1	inconclusive: -46.7%
CC1=CC(C)(C)NC(=S)N1c1cccc2ccccc12	inactive: 0%
CNC(=S)N(C)/N=C1/C(=O)N(Cc2c(Cl)cccc2Cl)c2ccccc21	inactive: 0%
Fc1ccc(/C=C\c2nccc3c2[nH]c2ccccc23)cc1	active: -78.1%
CC1CCN(c2nc3c(c(=O)[nH]c(=O)n3C)n2CC(C)CSc2nnnn2-c2ccccc2)CC1 (centres undefined)	inconclusive: -30.2%
O=C1OC[C@H](Cc2ccc3c(c2)OCO3)/C1=C\c1ccc2c(c1)OCO2	inconclusive: -32%
CCc1cc(C(=O)N2CCc3c([nH]c4ccccc34)C2c2ccc(OC)cc2F)no1 (centres undefined)	inconclusive: -46.2%
CCSc1nsc(NC(=O)Nc2cccc(F)c2)n1	active: -95%
CSc1cccc(NC(=S)N(Cc2ccccc2)Cc2cccnc2)c1	inconclusive: -38.5%
Cc1cc(C)c2c(c1)/C(=N/NS(=O)(=O)c1ccc(Br)cc1)CCC2	inactive: -3.51%
CCCOc1ccc(N2CC(C(=O)NC(C)C)CC2=O)cc1 (centres undefined)	inactive: 11.7%
Cc1ccc(NC(=O)CSc2nc3ccccc3c3nc4ccccc4n23)cc1	inactive: 43.7%
CC(C(=O)Nc1ccccc1)N(C)CCOc1ccc(Br)cc1 (centres undefined)	inconclusive: -32.6%

SMILES	activity change
O=[N+]([O-])c1ccc2nc(-[n+]3c(-c4ccccc4)cc(-c4ccccc4)cc3-c3ccccc3)[nH]c2c1	inconclusive: -34.1%
CCOC(=O)Cn1c(C)cc(=O)c2ccccc21	inconclusive: -31%
CC1Cc2nc(SCC(=O)Nc3ccc4c(c3)OCO4)n(CCc3ccccc3)c(=O)c2S1 (centres undefined)	inconclusive: -41.3%
CCN1C(=O)/C(=C/C=C2/SCCN2C)SC1=S	inconclusive: -32.3%
COc1ccc(CCNC(=S)NCc2ccc(Cl)c(Cl)c2)cc1OC	active: -85.3%
Cc1ccc2nc3c(cc2c1)c(NC(=O)C1CCCO1)nn3CC(C)C (centres undefined)	inconclusive: -32.1%
OCCNCC(O)CN1c2ccccc2Sc2ccccc21 (centres undefined)	inconclusive: -47%
N/C(=N\OC(=O)c1ccc(Cl)cc1)c1ccn[nH]1	inconclusive: -34.8%
CCc1ccc(C#CC2=CC(=O)CC(C)(C)C2)cc1	inconclusive: -44.3%
Fc1ccccc1N1CCN(Cc2cc(-c3ccccc3)on2)CC1	inconclusive: -33.7%
CCN1CCCc2cc(CN(CCN3CCOCC3)C(=S)Nc3cccc(C)c3)ccc21	inconclusive: -30.5%
c1ccc(-c2ncc(-c3ccn[nH]3)s2)cc1	inconclusive: -34.4%
Cc1cccc(/C=N/n2c(C3CCCCC3)n[nH]c2=S)c1	inactive: 6.27%
Cc1ccsc1/C=C/C1=Cc2c(sc(NC(=O)CSc3n[nH]c(N)n3)c2C#N)C(C)(C)C1	active: -63.1%
N#C/C(=C\c1c(N2CCCCCC2)nc2ccccn2c1=O)C(=O)NCc1ccco1	inconclusive: -43.1%
COc1ccc(Nc2oc(-c3cccs3)nc2C#N)cc1	inconclusive: -34.2%
COc1ccc(OC)c(CN2CCN(CC(=O)Nc3ccccc3C(=O)NC3CC3)CC2)c1	inactive: -2.24%
Cc1cc(NC(=O)CC#N)n(-c2nc3ccccc3[nH]2)n1	inactive: 8.07%
O=C(O)c1cnc(-c2ccccc2)nc1Oc1ccc(Cl)cc1	inconclusive: -49.9%
CCN(C1CCCCC1)S(=O)(=O)c1ccc(OC)c(C)c1	inactive: 18.7%
